Measured values as given in the supplement of paper PMC9151546.
Many values rest on one well or one pass, so single values are uncertain.

How the values were obtained:
CHO-K1 [1] = assay: relative survival (nuclei to bead ratio vs DMSO control) (% of vehicle control); higher = more surviving cells
Description: (§1)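 Flow-cytometric in vitro micronucleus assay (Litron MicroFlow) in CHO-K1 cells in 96-well plates, 19 concentrations (4.5-200 µM, n=1 per concentration). Without S9, cells were exposed for 24 h and sampled at 48 h. With Aroclor 1254-induced rat liver S9, cells were exposed for 3-4 h and sampled at 27-28 h. Read-outs are %MN and %hypodiploid nuclei relative to nucleated events, and relative survival as the nuclei-to-bead ratio versus the 1% DMSO vehicle control (x100).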

CHO-K1 [2] = assay: micronucleus frequency (% of nucleated events); higher = more micronuclei (genotoxic)
CHO-K1 [3] = assay: hypodiploid nuclei frequency (% of nucleated events); higher = more hypodiploid events (aneugenic)
Description: as §1
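Throughout, for hypodiploid nuclei frequency (% of nucleated events): hypodiploid nuclei gated on a flow cytometer with 488 nm excitation after SYTOX Green staining, cultures at 37 °C, positive controls vinblastine without S9 and cyclophosphamide with S9.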
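Throughout, for micronucleus frequency (% of nucleated events): cells lysed with nuclei stained by SYTOX Green, then micronucleus-gated events counted against nucleated events by flow cytometry with 488 nm excitation.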
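Throughout, for relative survival (nuclei to bead ratio vs DMSO control): Lysed-cell nuclei stained with SYTOX Green and counted against counting beads by flow cytometry at 488 nm excitation, with vinblastine (no S9) and cyclophosphamide (plus S9) as positive controls.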

CC(=O)N1CCN(c2ccc(OCC3COC(Cn4ccnc4)(c4ccc(Cl)cc4Cl)O3)cc2)CC1 (stereo not drawn) [Ketoconazole]
Conditions	hypodiploid nuclei frequency, CHO-K1 [3] [%]	micronucleus frequency, CHO-K1 [2] [%]	relative survival, CHO-K1 [1]
concentration: 4.5 (µM), S9 metabolic activation: with S9, exposure time: 3-4 hours	0.14	1.04	131
concentration: 4.5 (µM), S9 metabolic activation: without S9, exposure time: 24 hours	0.36	1.28	149
concentration: 5.63 (µM), S9 metabolic activation: with S9, exposure time: 3-4 hours	0.18	0.82	116
concentration: 5.63 (µM), S9 metabolic activation: without S9, exposure time: 24 hours	0.38	1.28	141
concentration: 7.04 (µM), S9 metabolic activation: with S9, exposure time: 3-4 hours	0.3	1.02	119
concentration: 7.04 (µM), S9 metabolic activation: without S9, exposure time: 24 hours	0.42	1.3	119
concentration: 8.8 (µM), S9 metabolic activation: with S9, exposure time: 3-4 hours	0.18	1	122
concentration: 8.8 (µM), S9 metabolic activation: without S9, exposure time: 24 hours	0.52	1.48	100
concentration: 11 (µM), S9 metabolic activation: with S9, exposure time: 3-4 hours	0.16	0.98	134
concentration: 11 (µM), S9 metabolic activation: without S9, exposure time: 24 hours	0.5	1.46	120
concentration: 13.7 (µM), S9 metabolic activation: with S9, exposure time: 3-4 hours	0.14	1.12	118
concentration: 13.7 (µM), S9 metabolic activation: without S9, exposure time: 24 hours	0.5	1.34	114
concentration: 17.2 (µM), S9 metabolic activation: with S9, exposure time: 3-4 hours	0.28	1.02	125
concentration: 17.2 (µM), S9 metabolic activation: without S9, exposure time: 24 hours	0.56	1.5	106
concentration: 21.5 (µM), S9 metabolic activation: with S9, exposure time: 3-4 hours	0.14	1.18	129
concentration: 21.5 (µM), S9 metabolic activation: without S9, exposure time: 24 hours	0.48	1.74	93.2
concentration: 26.8 (µM), S9 metabolic activation: with S9, exposure time: 3-4 hours	0.14	0.84	122
concentration: 26.8 (µM), S9 metabolic activation: without S9, exposure time: 24 hours	0.48	1.52	71.9
concentration: 33.6 (µM), S9 metabolic activation: with S9, exposure time: 3-4 hours	0.24	1.16	139
concentration: 33.6 (µM), S9 metabolic activation: without S9, exposure time: 24 hours	0.68	1.32	62.5
concentration: 41.9 (µM), S9 metabolic activation: with S9, exposure time: 3-4 hours	0.2	1.04	127
concentration: 41.9 (µM), S9 metabolic activation: without S9, exposure time: 24 hours	0.58	0.86	63.3
concentration: 52.4 (µM), S9 metabolic activation: with S9, exposure time: 3-4 hours	0.14	1.04	115
concentration: 52.4 (µM), S9 metabolic activation: without S9, exposure time: 24 hours	0.72	1.26	64.7
concentration: 65.5 (µM), S9 metabolic activation: with S9, exposure time: 3-4 hours	0.28	1.6	103
concentration: 65.5 (µM), S9 metabolic activation: without S9, exposure time: 24 hours	0.68	1.68	62.9
concentration: 81.9 (µM), S9 metabolic activation: with S9, exposure time: 3-4 hours	0.26	2.76	90.9
concentration: 81.9 (µM), S9 metabolic activation: without S9, exposure time: 24 hours	0.36	1.12	51.7
concentration: 102 (µM), S9 metabolic activation: with S9, exposure time: 3-4 hours	–	–	2.14
concentration: 102 (µM), S9 metabolic activation: without S9, exposure time: 24 hours	0.5	1.88	41.1
concentration: 128 (µM), S9 metabolic activation: with S9, exposure time: 3-4 hours	–	–	0.67
concentration: 128 (µM), S9 metabolic activation: without S9, exposure time: 24 hours	–	–	32
concentration: 160 (µM), S9 metabolic activation: with S9, exposure time: 3-4 hours	–	–	0.47
concentration: 160 (µM), S9 metabolic activation: without S9, exposure time: 24 hours	–	–	2.31
concentration: 200 (µM), S9 metabolic activation: with S9, exposure time: 3-4 hours	–	–	0.38
concentration: 200 (µM), S9 metabolic activation: without S9, exposure time: 24 hours	–	–	0.95

CC#C[C@]1(O)CC[C@H]2[C@@H]3CCC4=CC(=O)CCC4=C3[C@@H](c3ccc(N(C)C)cc3)C[C@@]21C [Mifepristone]
Conditions	hypodiploid nuclei frequency, CHO-K1 [3] [%]	micronucleus frequency, CHO-K1 [2] [%]	relative survival, CHO-K1 [1]
concentration: 4.5 (µM), S9 metabolic activation: with S9, exposure time: 3-4 hours	0.26	0.9	66.4
concentration: 4.5 (µM), S9 metabolic activation: without S9, exposure time: 24 hours	0.44	2.7	85.3
concentration: 5.63 (µM), S9 metabolic activation: with S9, exposure time: 3-4 hours	0.2	1	79.3
concentration: 5.63 (µM), S9 metabolic activation: without S9, exposure time: 24 hours	0.52	2.52	98.5
concentration: 7.04 (µM), S9 metabolic activation: with S9, exposure time: 3-4 hours	0.24	1.04	76.7
concentration: 7.04 (µM), S9 metabolic activation: without S9, exposure time: 24 hours	0.54	2	107
concentration: 8.8 (µM), S9 metabolic activation: with S9, exposure time: 3-4 hours	0.14	0.92	76.4
concentration: 8.8 (µM), S9 metabolic activation: without S9, exposure time: 24 hours	0.52	2.14	122
concentration: 11 (µM), S9 metabolic activation: with S9, exposure time: 3-4 hours	0.16	0.78	76.7
concentration: 11 (µM), S9 metabolic activation: without S9, exposure time: 24 hours	0.48	2.08	104
concentration: 13.7 (µM), S9 metabolic activation: with S9, exposure time: 3-4 hours	0.2	1.08	81.8
concentration: 13.7 (µM), S9 metabolic activation: without S9, exposure time: 24 hours	0.46	1.56	108
concentration: 17.2 (µM), S9 metabolic activation: with S9, exposure time: 3-4 hours	0.08	1.02	108
concentration: 17.2 (µM), S9 metabolic activation: without S9, exposure time: 24 hours	0.7	1.68	113
concentration: 21.5 (µM), S9 metabolic activation: with S9, exposure time: 3-4 hours	0.28	1.4	108
concentration: 21.5 (µM), S9 metabolic activation: without S9, exposure time: 24 hours	0.44	2.22	73.4
concentration: 26.8 (µM), S9 metabolic activation: with S9, exposure time: 3-4 hours	0.4	0.84	63
concentration: 26.8 (µM), S9 metabolic activation: without S9, exposure time: 24 hours	0.56	1.32	81.2
concentration: 33.6 (µM), S9 metabolic activation: with S9, exposure time: 3-4 hours	0.18	0.7	107
concentration: 33.6 (µM), S9 metabolic activation: without S9, exposure time: 24 hours	0.5	1.04	72.9
concentration: 41.9 (µM), S9 metabolic activation: with S9, exposure time: 3-4 hours	0.14	0.98	66.9
concentration: 41.9 (µM), S9 metabolic activation: without S9, exposure time: 24 hours	0.54	1.38	56.9
concentration: 52.4 (µM), S9 metabolic activation: with S9, exposure time: 3-4 hours	0.24	1.46	81.1
concentration: 52.4 (µM), S9 metabolic activation: without S9, exposure time: 24 hours	0.52	1.44	53.1
concentration: 65.5 (µM), S9 metabolic activation: with S9, exposure time: 3-4 hours	0.22	1.6	77.8
concentration: 65.5 (µM), S9 metabolic activation: without S9, exposure time: 24 hours	0.6	1.3	48.2
concentration: 81.9 (µM), S9 metabolic activation: with S9, exposure time: 3-4 hours	0.25	0.83	54.6
concentration: 81.9 (µM), S9 metabolic activation: without S9, exposure time: 24 hours	0.42	1.46	43.6
concentration: 102 (µM), S9 metabolic activation: with S9, exposure time: 3-4 hours	0.25	1.21	66.5
concentration: 102 (µM), S9 metabolic activation: without S9, exposure time: 24 hours	0.46	1.78	46.4
concentration: 128 (µM), S9 metabolic activation: with S9, exposure time: 3-4 hours	0.32	1.3	59.1
concentration: 128 (µM), S9 metabolic activation: without S9, exposure time: 24 hours	–	–	40
concentration: 160 (µM), S9 metabolic activation: with S9, exposure time: 3-4 hours	0.14	0.9	75.8
concentration: 160 (µM), S9 metabolic activation: without S9, exposure time: 24 hours	0.36	1.26	46
concentration: 200 (µM), S9 metabolic activation: with S9, exposure time: 3-4 hours	0.3	1.52	95.1
concentration: 200 (µM), S9 metabolic activation: without S9, exposure time: 24 hours	0.37	1.01	47.9

CCSC(=O)N1CCCCCC1 [Molinate]
Conditions	hypodiploid nuclei frequency, CHO-K1 [3] [%]	micronucleus frequency, CHO-K1 [2] [%]	relative survival, CHO-K1 [1]
concentration: 4.5 (µM), S9 metabolic activation: with S9, exposure time: 3-4 hours	0.29	1.15	81.3
concentration: 4.5 (µM), S9 metabolic activation: without S9, exposure time: 24 hours	0.37	1.03	101
concentration: 5.63 (µM), S9 metabolic activation: with S9, exposure time: 3-4 hours	0.2	0.89	83.3
concentration: 5.63 (µM), S9 metabolic activation: without S9, exposure time: 24 hours	0.41	1.14	97.8
concentration: 7.04 (µM), S9 metabolic activation: with S9, exposure time: 3-4 hours	0.14	0.69	83.5
concentration: 7.04 (µM), S9 metabolic activation: without S9, exposure time: 24 hours	0.43	1.03	85.3
concentration: 8.8 (µM), S9 metabolic activation: with S9, exposure time: 3-4 hours	0.18	0.95	87.9
concentration: 8.8 (µM), S9 metabolic activation: without S9, exposure time: 24 hours	0.38	1.1	103.9
concentration: 11 (µM), S9 metabolic activation: with S9, exposure time: 3-4 hours	0.14	1.06	95.43
concentration: 11 (µM), S9 metabolic activation: without S9, exposure time: 24 hours	0.32	1.18	91.3
concentration: 13.7 (µM), S9 metabolic activation: with S9, exposure time: 3-4 hours	0.14	1.06	96.3
concentration: 13.7 (µM), S9 metabolic activation: without S9, exposure time: 24 hours	0.42	1.1	93.2
concentration: 17.2 (µM), S9 metabolic activation: with S9, exposure time: 3-4 hours	0.11	1.26	91.3
concentration: 17.2 (µM), S9 metabolic activation: without S9, exposure time: 24 hours	0.42	1.37	114.12
concentration: 21.5 (µM), S9 metabolic activation: with S9, exposure time: 3-4 hours	0.16	1.08	82.7
concentration: 21.5 (µM), S9 metabolic activation: without S9, exposure time: 24 hours	0.37	1.06	105
concentration: 26.8 (µM), S9 metabolic activation: with S9, exposure time: 3-4 hours	0.28	0.995	66.6
concentration: 26.8 (µM), S9 metabolic activation: without S9, exposure time: 24 hours	0.54	1.12	91.6
concentration: 33.6 (µM), S9 metabolic activation: with S9, exposure time: 3-4 hours	0.25	0.96	71.8
concentration: 33.6 (µM), S9 metabolic activation: without S9, exposure time: 24 hours	0.61	1.1	83.3
concentration: 41.9 (µM), S9 metabolic activation: with S9, exposure time: 3-4 hours	0.145	1.1	66.7
concentration: 41.9 (µM), S9 metabolic activation: without S9, exposure time: 24 hours	0.55	1.4	73.6
concentration: 52.4 (µM), S9 metabolic activation: with S9, exposure time: 3-4 hours	0.175	1	69.4
concentration: 52.4 (µM), S9 metabolic activation: without S9, exposure time: 24 hours	0.56	1.15	84.6
concentration: 65.5 (µM), S9 metabolic activation: with S9, exposure time: 3-4 hours	0.3	1.09	74.2
concentration: 65.5 (µM), S9 metabolic activation: without S9, exposure time: 24 hours	0.55	1.66	76.2
concentration: 81.9 (µM), S9 metabolic activation: with S9, exposure time: 3-4 hours	0.18	1.04	74.7
concentration: 81.9 (µM), S9 metabolic activation: without S9, exposure time: 24 hours	0.76	1.29	81.05
concentration: 102 (µM), S9 metabolic activation: with S9, exposure time: 3-4 hours	0.18	1.49	67.7
concentration: 102 (µM), S9 metabolic activation: without S9, exposure time: 24 hours	0.97	1.39	84.5
concentration: 128 (µM), S9 metabolic activation: with S9, exposure time: 3-4 hours	0.225	1.14	73.3
concentration: 128 (µM), S9 metabolic activation: without S9, exposure time: 24 hours	0.59	1.32	97.2
concentration: 160 (µM), S9 metabolic activation: with S9, exposure time: 3-4 hours	0.35	1.54	74.3
concentration: 160 (µM), S9 metabolic activation: without S9, exposure time: 24 hours	0.77	1.7	109
concentration: 200 (µM), S9 metabolic activation: with S9, exposure time: 3-4 hours	0.295	1.57	71.3
concentration: 200 (µM), S9 metabolic activation: without S9, exposure time: 24 hours	1.07	1.52	85.8
